Test results reported in patent US20250170268A1, “METHODS AND TOOLS FOR CONJUGATION TO ANTIBODIES” (priority 2022, published 2025).

Tested on: human pancreatic adenocarcinoma cell line-derived xenograft model HPAF-II
Experiment: HPAF-II xenograft efficacy study
Assay type: in vivo, mice (Hsd: Athymic Nude-Foxn1nu)
Settings: single i.v. treatment at 1 or 6 mg/kg
Procedure: Efficacy of ADC1-M and ADC3-M in comparison to ADC8 was evaluated in the human pancreatic adenocarcinoma cell line-derived xenograft model HPAF-II (ATCC, CRL-1997). Six to eight weeks old immunodeficient female mice (Hsd: Athymic Nude-Foxn1nu, Envigo) were injected subcutaneously in the right flank with 5×10^6 HPAF-II cells. When tumors reached a mean volume of 150 mm^3, 10 mice/group were treated once intravenously with ADC1-M (1 mg/kg or 6 mg/kg) or with ADC3-M (1 mg/kg or 6 mg/kg) or with ADC8 (1 mg/kg or 6 mg/kg). Tumor length (L) and width (W) were measured with calipers and tumor volumes were calculated using the formula L×W^2/2.

B1: ADC8 (conjugate)
heavy: DIQLTQSPSSLSASVGDRVTITCKASQDVGTSVAWYQQKPGKAPKLLIYWTSTRHTGVPSRFSGSGSGTDFTFTISSLQPEDIATYYCQQYSLYRSFGQGTKVEIKRTVAAPSVFIFPPSDEQLKSGTASVVCLLNNFYPREAKVQWKVDNALQSGNSQESVTEQDSKDSTYSLSSTLTLSKADYEKHKVYACEVTHQGLSSPVTKSFNRGECEVQLVESGGGVVQPGRSLRLSCSASGFDFTTYWMSWVRQAPGKGLEWIGEIHPDSSTINYAPSLKDRFTISRDNAKNTLFLQMDSLRPEDTGVYFCASLYFGFPWFAYWGQGTPVTVSSASTKGPSVFPLAPSSKSTSGGTAALGCLVKDYFPEPVTVSWNSGALTSGVHTFPAVLQSSGLYSLSSVVTVPSSSLGTQTYICNVNHKPSNTKVDKRV[letters of human IgG1 Fc left out]
light: DIQLTQSPSSLSASVGDRVTITCKASQDVGTSVAWYQQKPGKAPKLLIYWTSTRHTGVPSRFSGSGSGTDFTFTISSLQPEDIATYYCQQYSLYRSFGQGTKVEIKRTVAAPSVFIFPPSDEQLKSGTASVVCLLNNFYPREAKVQWKVDNALQSGNSQESVTEQDSKDSTYSLSSTLTLSKADYEKHKVYACEVTHQGLSSPVTKSFNRGEC
- anti-tumor effect, HPAF-II xenograft, 1 or 6 mg/kg: no significant anti-tumor effect
